The list shows a part of the results. Further columns of the screen follow, without active or inactive calls. Numbered stars: 1 amine (or outer) side, 2 acyl side, 3 side chain; on linkers, the order of the positions; unused ones are H or OH. Square brackets hold non-standard residues; d marks the D form. Peptide text beside a SMILES is read from it. X10 = O=C(C(CC(O)CO)O[*:1])[*:2]; NMeV = CN[CH](C(=O)O)C(C)C; NMeA = CN[CH](C)C(=O)O; βAla = NCCC(=O)O
Tests used:
Experiment in all cases: Primary Screen for Target Class Profiling of Small Molecule Inhibitors of Methyltransferases
[1] = target: Glycine N-methyltransferase (Homo sapiens) (UniProt Q14749); conditions: purified enzyme, MTase-Glo SAH luminescence; measured here: GNMT inhibition; at 40 µM; stronger effect = lower value
Summary of the method: (§1)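 Each enzyme was assayed with SAM and its substrate. SAH formation detected by MTase-Glo luminescence; single-point 40 uM screen[…].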

[2] = target: Guanidinoacetate N-methyltransferase (Homo sapiens) (UniProt Q14353); conditions: purified enzyme, MTase-Glo SAH luminescence; measured here: GAMT inhibition; at 40 µM; stronger effect = lower value
Summary of the method: as §1

[3] = target: Histamine N-methyltransferase (Homo sapiens) (UniProt P50135); conditions: purified enzyme, MTase-Glo SAH luminescence; measured here: HNMT inhibition; at 40 µM; stronger effect = lower value
Summary of the method: as §1

[4] = target: Nicotinamide N-methyltransferase (Homo sapiens) (UniProt P40261); conditions: purified enzyme, MTase-Glo SAH luminescence; measured here: NNMT inhibition; at 40 µM; stronger effect = lower value
Summary of the method: as §1

[5] = target: Phenylethanolamine N-methyltransferase (Homo sapiens) (UniProt P11086); conditions: purified enzyme, MTase-Glo SAH luminescence; measured here: PNMT inhibition; at 40 µM; stronger effect = lower value
Summary of the method: as §1
% is scaled to controls: 0 for no effect and ±100 for the full control effect.

Row | Structure (SMILES) | activity change, negative = inhibition [1] [%] | activity change, negative = inhibition [2] [%] | activity change, negative = inhibition [3] [%] | activity change, negative = inhibition [4] [%] | activity change, negative = inhibition [5] [%]
1 | Cc1ccoc1C(=O)N1CC[C@@H]2CN(S(C)(=O)=O)[C@@H]2C1 | -3.75 | -1.41 | 0.965 | 1.52 | 2.06
2 | CN(C)Cc1nnc(C2CCN(Cc3cnc(-c4ccccn4)nc3)CC2)n1C | -1.76 | -4.91 | -8.53 | -9.72 | 8.86
3 | O=C(NCc1nc(-c2ncccn2)no1)C1CCCN(Cc2ccco2)C1 (stereo not given) | -0.368 | -1.5 | 0.562 | -3.01 | -2.41
4 | O=C(Nc1ccc(Oc2ccnc3[nH]ccc23)c(F)c1)c1cccn(-c2ccc(F)cc2)c1=O | 4.79 | 4.19 | 5.22 | -26.4 | 4.83
5 | C=C(C)C1Cc2c(ccc3c2OCC(c2ccc(O)cc2O)C3)O1 (stereo not given) | -6.62 | -5.35 | 0.443 | -15.5 | -9.28
6 | COc1ccc(S(=O)(=O)N2CCC3(CC2)CC(OC)CCO3)cc1 (stereo not given) | -3.69 | 3.93 | 2.02 | 0.315 | -2.23
7 | O=C1CCN(C(=O)Nc2ccccc2F)CCCC(C(=O)NCc2ccncc2)CCN1 (stereo not given) | -0.606 | 1.47 | 1.09 | 0.263 | 1.28
8 | CC1CCCC(O)CC(=O)c2c(O)cc(O)cc2CC(=O)O1 (stereo not given) | 0 | 6.86 | 10.4 | -2.69 | 7.26
9 | O=C(CCn1ccc2cc(S(=O)(=O)N3CCCC3)ccc21)NCc1cccnc1 | -4.98 | 0 | 1.8 | -3.63 | -7.27
10 | COCC(NC(=O)c1ccc2nc(C3CCCCC3)oc2c1)c1ccnn1C (stereo not given) | -14 | -12.4 | -24.5 | -15.8 | 4.08
11 | CCc1cc2c(cc3n2CC(C)(C(=O)NC2CCC(C)CC2)N(Cc2ccccc2Cl)C3=O)s1 (stereo not given) | 2.17 | 0.158 | 7.42 | 1.63 | 1.73
12 | O=C(N[C@H]1CCN(C(=O)c2cc(C(F)(F)F)cc(C(F)(F)F)c2)[C@H](Cc2ccc(Cl)cc2)C1)c1ccnc2ccccc12 | 1.09 | 0.274 | 11.3 | -17.8 | 1.5
13 | c1cc(-c2ccnc3nc(C4CCC4)nn23)ccn1 | -3.24 | 1.19 | -0.172 | -5.28 | -1.19
14 | COc1cccc(CNC(=O)Cn2nc3n(Cc4ccc(C)cc4)c(=O)c4ccccc4n3c2=O)c1 | 4.05 | 0.325 | 7.5 | 3.09 | 3.71
15 | CC(C)NC(=O)c1ccc2c(=O)n(Cc3ccccc3)c3nnc(SCc4cccc(F)c4)n3c2c1 | 4.18 | 0.159 | 7.47 | 4.46 | 6.49
16 | Cn1cnc2c1c(=O)[nH]c(=O)n2C | -5.35 | 2.63 | 1.67 | -1.97 | 7.55
17 | Cc1cccc(N2CCN(S(=O)(=O)c3ccc4[nH]c5c(c4c3)CCCC5)CC2)c1C | 1.07 | 4.36 | -3.8 | 2.65 | 2.14
18 | COC(=O)[C@@]1(O)C=CC[C@@H]2[C@@]3(C)C[C@@H](c4ccoc4)OC(=O)[C@H]3CC[C@]21C | 2.69 | -0.779 | 8.91 | -13 | 6.99
19 | CNC(C)C(=O)NC(C(=O)N1CCCC1C(=O)Nc1snnc1-c1ccccc1)C1CCCCC1 (stereo not given) | 6.24 | 3.75 | 11.4 | -11.9 | 4.41
20 | CCC(C)C1NC(=O)C2CCCN2C(=O)C(CC(O)CO)OC(=O)CCNC(=O)C(C)N(C)C(=O)C(C(C)C)N(C)C1=O (stereo not given) (cyclo([X10]PI[NMeV][NMeA][βAla]); configuration not given here) | -0.182 | -1.41 | 1.59 | -13.2 | 3.48

Row | Structure (SMILES) | activity change, negative = inhibition [1] [%] | activity change, negative = inhibition [2] [%] | activity change, negative = inhibition [3] [%] | activity change, negative = inhibition [4] [%] | activity change, negative = inhibition [5] [%]
21 | CC(C)c1nc(CNC(=O)c2ccc(NC3CCCCC3)nc2)no1 | -1.92 | -0.492 | -0.9 | -2.09 | -1.49
22 | Cc1ccc(C(=O)C(C)n2nc3n(CC(C)C)c(=O)c4ccc(C(=O)NCC(C)C)cc4n3c2=O)cc1C (stereo not given) | 7.32 | 1.22 | 11.1 | -0.304 | 6.6
23 | CCc1c(C)nn(CC(=O)N2CC(C)(C)[C@@](C)(O)C2)c1C | -5.09 | -5.25 | -2.06 | -7.08 | -4.63
24 | COCCCNC(=O)CCc1nnc2n(Cc3ccccc3Cl)c(=O)c3ccccc3n12 | 3.66 | 2.33 | 6.54 | 12.3 | 1.11
25 | COc1ccc(-c2nn(-c3ccccc3)cc2CN2CCC(F)CC2)c(F)c1 | -5.42 | -1.18 | -1.11 | -8.49 | -2.23
26 | O=C(CCc1nnc2n(Cc3ccc(F)cc3)c(=O)c3ccccc3n12)NCCN1CCCC1 | -8.53 | -28.8 | -47.2 | -2.88 | 2.65
27 | CC1CCC(NC(=O)c2cc3n(n2)CC(c2ccc(Cl)cc2)OC3)CC1 (stereo not given) | -11.7 | -10.4 | -7.95 | -10.8 | -3.47
28 | COc1ccc(C)cc1NC(=O)c1ncn2c1C(=O)N(C1CC1)C(C)(C(=O)NCc1ccc(F)cc1)C2 (stereo not given) | 1.3 | 2.34 | 14.6 | 5.21 | 9.94
29 | COc1ccc(NC(=O)N2CCn3cccc3C2Cc2ccccc2)cc1 (stereo not given) | -12.9 | 0.286 | -24.5 | -14.2 | -17.8
30 | CC1=NN(c2ccccc2)C(=O)C1 | -7.09 | -0.771 | 5.65 | -7.46 | 4.08
31 | COC1CCOC2(CCN(S(=O)(=O)c3cn(C)cn3)CC2)C1 (stereo not given) | 1.49 | 0.205 | 2.97 | -0.303 | 0.761
32 | CN(C)c1ccc(C2O[C@@H](c3ccccc3)C[C@H](c3ccccc3)O2)cc1 (stereo not given in full) | -3.5 | -0.98 | 7.82 | -15.2 | 0.707
33 | CC(C)N1C[C@@H](F)[C@@H](OCc2nc3ccc(F)cc3[nH]2)C1 | -9.04 | -7.72 | -5.52 | -12 | -7.13
34 | CN1C(=O)c2cc(C(=O)NCCc3ccc(Cl)cc3)nn2CC1(C)C(=O)NCc1ccccc1 (stereo not given) | 3.52 | 0 | -0.813 | 4.09 | 0.484
35 | CC(C)Cn1c(=O)c2ccc(C(=O)NC(C)C)cc2n2c(=O)n(Cc3ccc(Cl)cc3)nc12 | 5.07 | 0 | 7.72 | 1.04 | 5.93
36 | O=C(Nc1ccccc1F)C1CN(C2CCCC2)C(=O)N1 (stereo not given) | -5.49 | -10.4 | -3.04 | -11.6 | -9.1
37 | CCOCCCNC(=O)C1c2c(n(C)c3ccccc23)SCC(=O)N1c1ccc(F)cc1F (stereo not given) | 14.7 | 1.71 | 7.19 | 11.4 | 11.5
38 | NCCCNCCCCNCCCN | 4 | 13.4 | 4.55 | -1.67 | 10.5
39 | CC(C)Cn1c(=O)c2ccc(C(=O)NC3CCCC3)cc2n2c(=O)n(CC(=O)NCc3ccccc3)nc12 | -0.104 | 1.82 | 2.33 | -1.04 | -1.87

— PubChem BioAssay AID1745853 (National Center for Advancing Translational Sciences (NCATS), 2022)
